# From PubChem BioAssay AID1508642 (National Center for Advancing Translational Sciences (NCATS), 2021)
# About 200 (0.47%) of roughly 43,000 compounds were called active. Not shown: some 12% with an inconclusive outcome. The call rests on the fitted dose curve; in most records, active means well fitted cell-killing curve with a large enough effect; inconclusive means small, poorly fitted or top-dose-only effect, or effect the other way; inactive means flat fitted curve, though single readings scatter. Some of the results follow.
# Assay: Cell viability qHTS assay in S16 Pmp22-F2sN cells; further: nearly all actives have a fitted effect of over 65% in size
# Details: S16 Pmp22-F2sN Schwann cells (luciferase reporters placed in the Pmp22 gene) viability, CellTiter-Glo, 24 h; series mostly up to 57.5 µM; activity change, negative = cytotoxicity: at the top concentration
# Procedure, shortened: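 Rat S16 Schwann reporter line, 24 h treatment with library compounds delivered at 23 nL per well. Cell viability by CellTiter-Glo luminescence.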
# On the % scale 0 is the no-effect control and ±100 the full control effect.
row,Structure (SMILES),"activity change, negative = cytotoxicity"
1,CCOc1ccc2nc(NC(=O)c3nc(SCc4ccccc4F)ncc3Cl)sc2c1,inactive: 1.29%
2,CC(C)Cn1cc(NC(=O)N2CCN(c3ccc(F)cc3)CC2)c2ccccc2c1=O,inactive: 7.11%
3,COc1cc(OC)cc(-c2nc3nc(C)c(CCC(=O)Nc4cc(C)cc(C)c4)c(C)n3n2)c1,inactive: 15.1%
4,CCCCn1c(=O)n(CC2CCC(C(=O)NCCCOC)CC2)c(=O)c2sccc21 (stereo unspecified),inactive: -0.676%
5,O=C(NCc1ccc(Cl)cc1)C1CCN(S(=O)(=O)c2cccc3nonc23)CC1,inactive: 14.1%
6,Cc1ccc(-c2cnc(C3CC3)o2)cc1S(=O)(=O)Nc1cccc(C)c1C,inactive: -9.08%
7,CC(C)(C)OC(=O)N1CCC(c2c(C(=O)N3CCN(c4ccccn4)CC3)cnn2-c2ccc(F)cc2F)CC1,inactive: -0.152%
8,COc1ccc2[nH]c3c(c2c1)CCN(C(=O)CCC1CCCC1)C3c1ccc(F)cc1 (stereo unspecified),inactive: -10.1%
9,O=C(CC1N=C2c3ccccc3N=C(SCc3ccc(F)cc3)N2C1=O)NCCc1ccccc1 (stereo unspecified),inactive: -22.6%
10,O=C(CSc1nccn1-c1ccc(F)cc1)Nc1nc2ccccc2s1,inactive: -12.9%
11,Cc1cccc(Cn2c(-c3ccccc3)nc3ccccc32)c1,inactive: -15.2%
12,COc1ccc(Cl)cc1NCc1nnc2n1CCCCC2,inactive: -1.79%
13,COc1ccc(NC(=O)c2oc3ccccc3c2NC(=O)c2cc(=O)c3cc(Cl)ccc3o2)cc1,inactive: 5.04%
14,COC(=O)c1c(NC(=O)c2ccc(OC)cc2OC)sc2c1CCCCC2,inactive: 6.29%
15,COc1ccc(CC(C)NS(=O)(=O)c2ccc3c(c2)CCN3S(C)(=O)=O)cc1OC (stereo unspecified),inactive: -2.52%
16,COc1ccc(NC(=O)C2CCCN(S(=O)(=O)c3c(C)[nH]c(=O)[nH]c3=O)C2)cc1OC (stereo unspecified),inactive: -18.6%
17,CCn1c(=O)c2cc(C(=O)NCc3cc(OC)ccc3OC)sc2c2ccccc21,inactive: 9.34%
18,Cc1ccc(NC(=O)C2CCCN(c3ncnc4c3nc3n4CCCCC3)C2)c(Br)c1 (stereo unspecified),inactive: 8.87%
19,CC(C)(C)c1ccc(C(=O)NCC(=O)OCc2cc(=O)n3nc(C4CC4)sc3n2)cc1,inactive: 2.81%
20,O=C(Nc1sc2c(c1C(=O)NCc1ccco1)CCCC2)c1cc(=O)c2cc(Cl)ccc2o1,inactive: 5.19%
21,Cc1nnc(N2CCN(C(=O)NCCC(C)C)CC2)c2nn(-c3ccc(Cl)cc3)c(C)c12,inactive: 1.12%
22,Cc1cc(C)c2nc(C)cc(Nc3cccc(C(=O)O)c3)c2c1,inactive: -1.24%
23,CCOc1cc(C(=O)Nc2cc3c(cc2N2CCCC2)n(C)c(=O)c(=O)n3C)cc(OCC)c1OCC,inactive: -2.92%
24,Cc1cccc(C(=O)Nc2cc3c(cc2C)n(C)c(=O)n3C)c1,inactive: 3.93%

row,Structure (SMILES),"activity change, negative = cytotoxicity"
1,CCC(=O)N1CCc2cc(Br)cc(S(=O)(=O)NCCc3cccc(C)c3)c21,inactive: 4.14%
2,CC(=O)N1CCc2cc(S(=O)(=O)NC(Cc3ccccc3)C(=O)NCc3ccccc3)ccc21 (stereo unspecified),inactive: -1.38%
3,COCc1nc2ccccc2n1Cc1ccc(C(C)(C)C)cc1,inactive: -28.7%
4,CC(=O)Nc1ccc(NC(=O)c2ccc3c(c2)N(Cc2cccc(Cl)c2)C(=O)c2ccccc2S3=O)cc1 (stereo unspecified),inactive: -8.94%
5,Cc1ccc(Cn2c(=O)n(Cc3ccccc3)c(=O)c3oc4ccccc4c32)cc1,inactive: -0.846%
6,CC(=O)N1CCC(N(Cc2ccc(C)o2)C(=O)Nc2cccc(C(F)(F)F)c2)CC1,inactive: 0.329%
7,Cc1ccc2c(c1)-c1nc(-c3ccc4c(c3)NC(=O)CO4)cc(-c3ccccc3)c1CO2,inactive: 18.8%
8,Cc1ccc(C)c(NC(=O)CN2C(=O)CCc3cc(S(=O)(=O)N4CCCCC4)ccc32)c1,inactive: -11.2%
9,O=C(CCCCn1c(=O)c2ccccc2n(Cc2cccc(F)c2)c1=O)NCCc1ccccc1,inactive: 26.7%
10,COc1ccccc1NC(=O)Cn1c(C)cc(C)c(C#N)c1=O,inactive: -4.13%
11,COc1ccc(NC(=O)Nc2cc(-c3cn4cccnc4n3)ccc2C)cc1,inactive: 1.61%
12,CC(=O)N1CCc2c(sc3c2c(=O)n(-c2ccccc2)c(=O)n3CC(=O)c2ccccc2)C1,inactive: 3.24%
13,COc1cccc(CSc2nc3ccncc3n2CC(=O)Nc2ccc(OC)c(OC)c2OC)c1,inactive: -6.92%
14,CCC1CN(C(=O)N2CCC(C(=O)NCCc3ccc(OC)cc3OC)CC2)c2cc(C)ccc2O1 (stereo unspecified),inactive: -23.3%
15,Cc1cccc(OCc2nc(CC(=O)Nc3ccc(Cl)cc3)cs2)c1,inactive: 1.19%
16,Cc1cc(Nc2ccc(Br)cc2)nc(C)n1,inactive: -0.569%
17,Cc1cccc(C)c1-n1ncc(C(=O)NCCCN2CCC(C)CC2)c1C1CCN(C(=O)OC(C)(C)C)CC1,inactive: -4.32%
18,COc1cccc(NC(=O)CCN2C(=O)c3ccccc3Sc3ncccc32)c1,inactive: 3.8%
19,Cc1cc(C)nc(-n2nc(C)c3c2N(Cc2ccccc2F)C(=O)CC3c2ccc(Cl)cc2)n1 (stereo unspecified),inactive: -25.6%
20,CCc1ccccc1NC(=O)C1CCN(S(=O)(=O)c2cn(C)cn2)CC1,inactive: -3.45%
21,CCOC(=O)c1sc2ccccc2c1S(=O)(=O)NCc1ccccc1OC,inactive: 9.15%
22,COc1ccccc1CNC(=O)Cc1csc2nc(-c3ccc(F)cc3)cn12,inactive: 5.09%
23,CCc1cc2c(cc3c(=O)n(CC(=O)NC(C)c4ccccc4)ncn32)s1 (stereo unspecified),inactive: -0.551%
24,Cn1ncc2c(N3CCN(c4ccc(F)cc4)CC3)ncnc21,inactive: -7.99%

row,Structure (SMILES),"activity change, negative = cytotoxicity"
1,O=C(Cc1ccc(-c2ccccc2)cc1)NCCS(=O)(=O)N1CCN(c2ccc(F)cc2)CC1,inactive: -0.573%
2,COc1cc(-c2nc3sccn3c2Nc2c(C)cccc2C)ccc1O,inactive: 2.46%
3,Cc1c(CCNC(=O)c2c(F)cccc2F)sc2nc(-c3ccc(F)cc3)nn12,inactive: 5.17%
4,CCOc1ccc(CCn2c3c(c(=O)[nH]c2=O)C(NC(=O)c2cccc(F)c2)(C(F)(F)F)C(=O)N3)cc1OCC (stereo unspecified),inactive: 7.79%
5,CC(=O)N1CCCC1c1nc2ccccc2n1Cc1ccccc1Cl (stereo unspecified),inactive: 1.98%
6,O=C1Cc2cc(S(=O)(=O)N3CCN(c4cccc(Cl)c4)CC3)ccc2N1,inactive: -0.126%
7,CC(=O)N1CCCc2ccc(NS(=O)(=O)c3cccc(Cl)c3)cc21,inactive: -2.45%
8,CCn1c(C(=O)NCCc2ccc(S(N)(=O)=O)cc2)cc2sc(Cl)cc21,inactive: 2.71%
9,O=C(c1ccc2c(Cl)c3c(nc2c1)CCCC3)N1CCN(c2ccc(Cl)cc2)CC1,inactive: 17%
10,COc1ccc(N2CCN(CCCNC(=O)C3COc4ccccc4C3)CC2)cc1 (stereo unspecified),inactive: -22.2%
11,CCOc1ccc(-n2c(=O)c3c4c(sc3n(CC(=O)NC(C)CC)c2=O)CCCCC4)cc1 (stereo unspecified),inactive: 25.2%
12,Cc1ccc(CNC(=O)CSc2nc3c(sc4ccccc43)c(=O)n2CCCC(=O)NCCO)cc1,inactive: 1.23%
13,O=C(Nc1ccc(F)cc1)Nc1csc2c1CCCC2,inactive: 0.633%
14,Cc1cc(=O)n2nc(N(C)CC(=O)NCc3ccccc3C)sc2n1,inactive: 0.642%
15,CCCC(=O)Nc1cccc(OCc2cc(=O)n3cccc(C)c3n2)c1,inactive: 20.5%
16,O=C(NCCc1ccccc1)c1cc(Nc2ccccc2)nc2ccccc12,inactive: 18.1%
17,COc1ccc(CCCc2nnc(SCC(=O)Nc3cccc(F)c3C)o2)cc1,inactive: 3.68%
18,CCOCCc1nn2c(=O)cc(COC(=O)c3ccccc3OC)nc2s1,inactive: 1.27%
19,CCOC(=O)C1CCCN(C(=O)c2ccc3c(c2)sc2nc(-c4cccc(OC)c4)cn23)C1 (stereo unspecified),inactive: -22.3%
20,COCCCn1c(SCc2cccc(Cl)c2)nc2c(sc3ccccc32)c1=O,inactive: 4.21%
21,COc1ccc(N(CC(=O)Nc2cccc(Cl)c2)S(=O)(=O)c2c(C)[nH]c(=O)[nH]c2=O)cc1,inactive: -0.0549%
22,CCOc1ccc(Nc2nc(-c3cccc(Cl)c3)c3c(n2)-c2ccccc2OC3)cc1,inactive: 1.05%
23,CCOCCc1nnc(NC(=O)C(=O)c2cc(C)n(-c3ccc(C)cc3C)c2C)s1,inactive: -14.4%
24,COc1cc(NC(=O)CC2C(=O)N(c3ccccc3)C(=O)N2Cc2ccc(F)cc2)cc(OC)c1 (stereo unspecified),inactive: 1.39%

row,Structure (SMILES),"activity change, negative = cytotoxicity"
1,CCc1ccccc1NC(=O)N1CCOc2ccccc21,inactive: -4.54%
2,O=C(Cn1ncc2c([nH]c3ccccc32)c1=O)NCCCN1CCN(c2ccc(F)cc2)CC1,inactive: -7.54%
3,COc1ccc(OC)c(NC(=O)CSc2nc(=O)n(CCN(C)C)c3c2CCC3)c1,inactive: 8.88%
4,CC1CCc2c(sc(NC(=O)Cc3ccccc3)c2C(=O)Nc2ccc(Cl)cc2)C1 (stereo unspecified),inactive: -14.4%
5,CCc1ccc(-n2c(=O)c3c4c(sc3n(Cc3ccccc3C#N)c2=O)CCCC4)cc1,inactive: -8.14%
6,CCCn1c2ccccc2c2cnn(CC(=O)Nc3cc(C)c(Cl)cc3OC)c(=O)c21,inactive: 3.21%
7,Cc1cn2c(=O)cc(COC(=O)c3ccc(NC(=O)COc4ccccc4C)cc3)nc2s1,inactive: 6.15%
8,CCOC(=O)c1cc(-c2ccccc2)n(-c2cccc(C(=O)Nc3cccc(SC)c3)c2)c1C,inactive: 4.17%
9,Cc1ccc(-c2nn3c(-c4ccccc4C)nnc3c3ccccc23)cc1,inactive: 5.63%
10,COc1ccc(CCC(=O)NCCc2csc(-c3ccc(F)cc3)n2)cc1,inactive: 2.37%
11,CCc1ccc(NC(=O)CSc2ccnc(=O)[nH]2)cc1,inactive: 3.55%
12,O=C(NCCc1ccccc1)c1ccc2c(c1)N(Cc1ccc(Cl)cc1)C(=O)CS2,inactive: -9.21%
13,Cc1nn(C)c(C)c1S(=O)(=O)N(CC(=O)NCCc1ccccc1)c1ccc(C(C)C)cc1,inactive: -13.3%
14,Cc1cc2c(cc1S(=O)(=O)NCc1ccc(F)cc1)n(C)c(=O)c(=O)n2C,inactive: -2.77%
15,Cc1cccc(N2C(=O)CC(c3ccc(F)cc3)C3=C2COC3=O)c1 (stereo unspecified),inactive: -2.34%
16,COc1ccc(NC(=O)c2ccco2)cc1NC(=O)COc1ccc(C)c(C)c1,inactive: 1.85%
17,CCCCNC(=O)c1nn(C)c2c1CSc1ccccc1-2,inactive: 15%
18,Cc1ccccc1C(=O)Nc1cc(C)c(O)c(-c2nc3ccccc3o2)c1,inactive: 17%
19,CCCCCCn1nnc2sc(-c3ccccc3)cc2c1=O,inactive: 0.327%
20,CC1CCN(CC2CCN(C(=O)NCc3ccccc3)CC2)CC1,inactive: 2.38%
21,CCOc1ccc(-c2nc(Cn3c(=O)cc(C)c4c(C)nn(-c5ccccc5)c43)c(C)o2)cc1,inactive: -1.64%
22,CCC1CN(C(=O)Nc2ccccc2F)c2cc(C)ccc2O1 (stereo unspecified),inactive: 2.55%
23,COc1ccc(CNC(=O)CCNS(=O)(=O)c2ccc3c(c2)oc(=O)n3C)cc1,inactive: -0.913%
24,COc1ccc(C2CC(=O)c3cc(-c4nc(-c5cccc([N+](=O)[O-])c5)cs4)c(=O)n(-c4ccccc4)c3C2)cc1 (stereo unspecified),inactive: 3.15%
